Reference: patent US20250270274A1 (SERPENTIDE, published 2025)

Target: dulaglutide (TRULICITY brand)
Assay: ELISA, nanobody-hIgG1Fc on dulaglutide

| Binder | EC50 [µg/mL] |
| --- | --- |
| P62-hIg1Fc (Fc fusion, Alpaca nanobody raised against SP01, fused to human IgG1 Fc; also called P62-hIgG1Fc) QVQLVETGGGLVQAGGSLRLSCAASGRTFSSYRMGWFRQAPGKEREFVAVISRSGDVTTYAHSVKGRFTVSRDNAKNTVYLQMNSLKPEDTAVYYCAAGLAANTANYWGQGTQVTVSS[human IgG1 Fc with changes not given here] | 0.0187 |
| P71-hIg1Fc (Fc fusion, Alpaca nanobody raised against SP01, fused to human IgG1 Fc; also called P71-hIgG1Fc) QVQLVESGGGLVQAGGSLRLSCVASGRTFSSGRMAWFRQAPGKEREFVAVISQNGGVTTYAASVKGRFTVSRDNAKNTVYLQMNSLKPEDTAVYYCAAGVTTNTANYWGQGTRVTVSS[human IgG1 Fc with changes not given here] | 0.036 |
| P73-hIg1Fc (Fc fusion, Alpaca nanobody raised against SP01, fused to human IgG1 Fc; also called P73-hIgG1Fc) QVQLVESGGGLVQPGGSLRLSCVASGNIFSSSIMGWYRQAPGKQREAVAFITNGGSTDYADSVKGRFTISRDNAKNTTYLQMNSLKFEDTAVYYCNLRNQRNFQEGSLGQGTQVTVSS[human IgG1 Fc with changes not given here] | 0.0331 |
| P64-hIg1Fc (Fc fusion, Alpaca nanobody raised against SP01, fused to human IgG1 Fc; also called P64-hIgG1Fc) EVQLQESGGGLVQAGGSLRLSCAASGSISSLNGIWYRQAPGKQREVVAGITSGGSTNYADSVKGRFTISRDNAKNTVYLQMNGLKPEDTAIYYCNTVRNWDIRTALSRSGGQGTQVTVSS[human IgG1 Fc with changes not given here] | 0.073 |
| P65-hIg1Fc (Fc fusion, Alpaca nanobody raised against SP01, fused to human IgG1 Fc; also called P65-hIgG1Fc) QVQLVESGGGLVQPGGSLRLSCAASGSIFAINVMGWYRQASGNQRELVAGITTGGARDYADSVKGRFTISRDNAKNTVYLSMNSLKPEDTAVYYCNLHAPKYIDSRYDYWGQGTQVTVSS[human IgG1 Fc with changes not given here] | 0.15 |
| P66-hIg1Fc (Fc fusion, Alpaca nanobody raised against SP01, fused to human IgG1 Fc; also called P66-hIgG1Fc) EVQVQESGGGLVQAGGSLRLSCAASGRSFRSDRMGWFRQAPGKEREFVAVISRGGGVTTYADSVKGRFTVSRDDAKNTVDLQMNSLKPEDTAVYYCAAGITTKAANYWGMGTQVTVSS[human IgG1 Fc with changes not given here] | 0.0193 |
| P67-hIg1Fc (Fc fusion, Alpaca nanobody raised against SP01, fused to human IgG1 Fc; also called P67-hIgG1Fc) QVQLVESGGGLVQPGGSLRLSCAASGSVFSRNFMGWYRQAPGKQRELVAYITVDGGTRYADSVKGRFTISRDNAKNTVYLQMNSLKPEDTAVYYCNRAGTTPYAWGQGTLVTVSS[human IgG1 Fc with changes not given here] | 0.0373 |
| P68-hIg1Fc (Fc fusion, Alpaca nanobody raised against SP01, fused to human IgG1 Fc; also called P68-hIgG1Fc) QVRLVESGGGLVQAGGSLRLSCTASGRTFSSYSVGWFRQAPGKERAFVAVISKSGGITTYADSVKGRFIISRDNAKNTVYLQMNSLKPEDTAVYYCAASGSSLRLADSGSWGQGTQVTVSS[human IgG1 Fc with changes not given here] | 0.0182 |
| P70-hIg1Fc (Fc fusion, Alpaca nanobody raised against SP01, fused to human IgG1 Fc; also called P70-hIgG1Fc) EVQLVESGGGLVQAGGSLRLSCVASGRTFGNYRMAWFRQAPGKEREFVAVISRNGGITTYADSAKGRFTLSRDNAKNAVYLQMNSLKPEDTAVYYCTGGRNLGTWDYWGQGTQVTVSS[human IgG1 Fc with changes not given here] | 0.00356 |
| P72-hIg1Fc (Fc fusion, Alpaca nanobody raised against SP01, fused to human IgG1 Fc; also called P72-hIgG1Fc) EVQLQESGGGLVQAGGSLRLSCVVSGRTFGSLRMAWFRQAPGKEREFVSIISKSGGITTYADSVKGRFTISRDNAKNTVYLQMNSLKPEDTAVYYCAADASIRPRTNPSDYDGWGQGTQVTVSS[human IgG1 Fc with changes not given here] | 0.0156 |
